Assay results reported in the supplement of paper PMC4604168 (melanoma cell lines).
The list shows a part of the results. Most values come without repeats; read them as rough.

Tests used:
Assay in all cases: cell count relative to DMSO control; melanoma cells; higher = more viable cells
Conditions in all cases: library dose: standard library concentration; 72 h
SkMel28 = test system: SkMel28
SkMel2 = test system: SkMel2
SkMel30 = test system: SkMel30
SkMel5 = test system: SkMel5
UACC257 = test system: UACC257
UACC62 = test system: UACC62
WM115 = test system: WM115
WM1716 = test system: WM1716
WM1745 = test system: WM1745
WM3526 = test system: WM3526
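Note: cells treated in 1,536-well plates, then fixed and DAPI-stained, with nuclei counted from automated high-throughput microscope images.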

| SMILES | cell count (SkMel28) | cell count (SkMel2) | cell count (SkMel30) | cell count (SkMel5) | cell count (UACC257) | cell count (UACC62) | cell count (WM115) | cell count (WM1716) | cell count (WM1745) | cell count (WM3526) |
| --- | --- | --- | --- | --- | --- | --- | --- | --- | --- | --- |
| CN(C)S(=O)(=O)c1ccc2c(c1)/C(=C/c1cc3c([nH]1)CCCC3)C(=O)N2 + COC(=O)c1sccc1S(=O)(=O)Nc1ccc(Nc2ccccc2)cc1OC [GSK0660] (first compound 2 µM, partner dose 5 µM) | 44.9% | 77.8% | 78.5% | 73.6% | 68.5% | 98.3% | 53.6% | 73.7% | 54.1% | 77.5% |
| CO[C@@H]1[C@H](N(C)C(=O)c2ccccc2)C[C@H]2O[C@]1(C)n1c3ccccc3c3c4c(c5c6ccccc6n2c5c31)C(=O)NC4 [Midostaurin] + CC(C)(C)c1cnc(CSc2cnc(NC(=O)C3CCNCC3)s2)o1 [SNS-032] (first compound 0.4 µM, partner dose 0.05 µM) | 45.1% | 44.6% | 73.9% | 40.4% | 58.4% | 48.8% | 30.3% | 37.6% | 35.3% | 70.3% |
| NC(=O)Nc1cc(-c2cccc(F)c2)sc1C(=O)N[C@H]1CCCNC1 + O=C1NC(=O)/C(=C/c2ccc(-c3ccc(F)cc3O)o2)S1 [AS252424] (first compound 0.1 µM, partner dose 5 µM) | 132% | 102% | 88.4% | 112% | 104% | 95.4% | 81.8% | 95.8% | 79.5% | 55.4% |
| Cc1nc(Nc2ncc(C(=O)Nc3c(C)cccc3Cl)s2)cc(N2CCN(CCO)CC2)n1 [dasatanib] + COc1ccc(-c2ccc3c(N4CCOCC4)nc(N4C[C@@H](C)O[C@@H](C)C4)nc3n2)cc1CO [KU0063794] (first compound 0.02 µM, partner dose 0.1 µM) | 65.7% | 76.4% | 80% | 59.6% | 79.4% | 73.7% | 37.6% | 38.9% | 28.5% | 70.9% |
| NCC(=O)Nc1ccc(-n2nc(C(F)(F)F)cc2-c2ccc3c(ccc4ccccc43)c2)cc1 + Oc1nc(-c2ccc(C(F)(F)F)cc2)nc2c1CSCC2 [XAV939] (first compound 5 µM, partner dose 10 µM) | 10% | 44.1% | 49.1% | 50.5% | 60.4% | 47.4% | 91.1% | 88.8% | 69.2% | 38.6% |
| CN(C)S(=O)(=O)c1ccc2c(c1)/C(=C/c1cc3c([nH]1)CCCC3)C(=O)N2 + CCCCCCCCCCCC1=C(O)C(=O)C=C(O)C1=O [Embelin] (first compound 2 µM, partner dose 6 µM) | 58.7% | 80% | 86.1% | 73.3% | 69.6% | 75.2% | 45.5% | 38.7% | 49.8% | 73% |
| C[C@]1(c2nc3c(C(N)=O)cccc3[nH]2)CCCN1 [Veliparib] + CO[C@@H]1[C@H](N(C)C(=O)c2ccccc2)C[C@H]2O[C@]1(C)n1c3ccccc3c3c4c(c5c6ccccc6n2c5c31)C(=O)NC4 [Midostaurin] (first compound 7 µM, partner dose 0.4 µM) | 37.6% | 42.9% | 82.5% | 47.4% | 74% | 46.2% | 32.1% | 38.1% | 28.6% | 81% |
| NCC(=O)Nc1ccc(-n2nc(C(F)(F)F)cc2-c2ccc3c(ccc4ccccc43)c2)cc1 + CCc1ccc(CCOc2ccc(CC3SC(=O)NC3=O)cc2)nc1 [pioglitazone] (first compound 5 µM, partner dose 10 µM) | 16.8% | 32.6% | 23.4% | 38.6% | 70.5% | 57.9% | 88.9% | 3.48% | 97% | 49% |
| OCCn1cc(-c2cnc3nnn(Cc4ccc5ncccc5c4)c3n2)cn1 + CCc1ccc(CCOc2ccc(CC3SC(=O)NC3=O)cc2)nc1 [pioglitazone] (first compound 5 µM, partner dose 10 µM) | 100% | 93.1% | 87.6% | 89.3% | 101% | 65.5% | 98.5% | 86.2% | 77.4% | 88% |
| C=CCn1c(=O)c2cnc(Nc3ccc(N4CCN(C)CC4)cc3)nc2n1-c1cccc(C(C)(C)O)n1 + COc1cc2c(Oc3ccc4[nH]c(C)cc4c3F)ncnc2cc1OCCCN1CCCC1 [cediranib] (first compound 0.1 µM, partner dose 2 µM) | 41.1% | 68.3% | 55.8% | 46.4% | 77.9% | 40.4% | 59.3% | 76.5% | 31.3% | 72.1% |
| C[C@]1(c2nc3c(C(N)=O)cccc3[nH]2)CCCN1 [Veliparib] + CC(C)(C)c1cnc(CSc2cnc(NC(=O)C3CCNCC3)s2)o1 [SNS-032] (first compound 7 µM, partner dose 0.05 µM) | 49.7% | 72.7% | 100% | 89.6% | 77.4% | 66.1% | 75% | 64.6% | 94.6% | 81% |
| CN(C)S(=O)(=O)c1ccc2c(c1)/C(=C/c1cc3c([nH]1)CCCC3)C(=O)N2 + Cc1cc([N+](=O)[O-])ccc1NS(=O)(=O)c1cc(Cl)ccc1Cl [FH535] (first compound 2 µM, partner dose 5 µM) | 51.9% | 85.8% | 81% | 49.2% | 71.3% | 85% | 66.8% | 66.7% | 69.2% | 66.8% |
| NC(=O)Nc1cc(-c2cccc(F)c2)sc1C(=O)N[C@H]1CCCNC1 + O=C(O)C(=O)Nc1sc2c(c1C(=O)O)CCNC2 [TCS401] (first compound 0.1 µM, partner dose 8.33333 µM) | 22% | 75.8% | 78.2% | 75.3% | 93.3% | 73.5% | 73.4% | 64.8% | 49.3% | 48.5% |
| NCC(=O)Nc1ccc(-n2nc(C(F)(F)F)cc2-c2ccc3c(ccc4ccccc43)c2)cc1 + COc1cc2ncnc(Nc3ccc(Oc4ccccc4)cc3)c2cc1OC [SrcI1] (first compound 5 µM, partner dose 10 µM) | 17.4% | 45.7% | 23.1% | 59.2% | 74.6% | 14.7% | 59.1% | 66.6% | 59.7% | 39.9% |
| Cc1nc(Nc2ncc(C(=O)Nc3c(C)cccc3Cl)s2)cc(N2CCN(CCO)CC2)n1 [dasatanib] + N#Cc1c(O)c2c(-c3ccc(-c4ccccc4O)cc3)csc2[nH]c1=O [A769662] (first compound 0.02 µM, partner dose 10 µM) | 77.8% | 96.3% | 103% | 74.9% | 84.7% | 99% | 77% | 58.7% | 51% | 88.4% |
| Cc1nc(Nc2ncc(C(=O)Nc3c(C)cccc3Cl)s2)cc(N2CCN(CCO)CC2)n1 [dasatanib] + O=C(O)C(=O)Nc1sc2c(c1C(=O)O)CCNC2 [TCS401] (first compound 0.02 µM, partner dose 8.33333 µM) | 67.3% | 90.8% | 93.4% | 54.4% | 80.3% | 91.8% | 46% | 53.3% | 30.6% | 72.9% |
| CO[C@@H]1[C@H](N(C)C(=O)c2ccccc2)C[C@H]2O[C@]1(C)n1c3ccccc3c3c4c(c5c6ccccc6n2c5c31)C(=O)NC4 [Midostaurin] + NCC(=O)Nc1ccc(-n2nc(C(F)(F)F)cc2-c2ccc3c(ccc4ccccc43)c2)cc1 [OSU03012] (first compound 0.4 µM, partner dose 5 µM) | 13% | 28.9% | 28.3% | 35.3% | 43.3% | 36.2% | 32.9% | 32.3% | 38.9% | 33.8% |
| OCCn1cc(-c2cnc3nnn(Cc4ccc5ncccc5c4)c3n2)cn1 + COC(=O)c1sccc1S(=O)(=O)Nc1ccc(Nc2ccccc2)cc1OC [GSK0660] (first compound 5 µM, partner dose 5 µM) | 114% | 85.5% | 94.5% | 113% | 89.8% | 119% | 103% | 94.3% | 82.6% | 92.7% |
| NCC(=O)Nc1ccc(-n2nc(C(F)(F)F)cc2-c2ccc3c(ccc4ccccc43)c2)cc1 + CN(NC(=O)CC(=O)NN(C)C(=S)c1ccccc1)C(=S)c1ccccc1 [STA4783] (first compound 5 µM, partner dose 0.03 µM) | 9.96% | 56% | 29.2% | 72.2% | 79.8% | 53.9% | 44.7% | 79% | 25.9% | 54% |
| Cc1nc(Nc2ncc(C(=O)Nc3c(C)cccc3Cl)s2)cc(N2CCN(CCO)CC2)n1 [dasatanib] + CN(C)S(=O)(=O)c1ccc2c(c1)/C(=C/c1cc3c([nH]1)CCCC3)C(=O)N2 [SU6656] (first compound 0.02 µM, partner dose 2 µM) | 53.1% | 79.8% | 97.3% | 59.7% | 74.4% | 86.4% | 49.4% | 53.9% | 28% | 77.2% |
| C[C@]1(c2nc3c(C(N)=O)cccc3[nH]2)CCCN1 [Veliparib] + CCCCCCCCCCCC1=C(O)C(=O)C=C(O)C1=O [Embelin] (first compound 7 µM, partner dose 6 µM) | 72.1% | 80.1% | 74% | 76.6% | 72.1% | 73.9% | 53.6% | 76.2% | 66.3% | 98.7% |
| Cc1nc(Nc2ncc(C(=O)Nc3c(C)cccc3Cl)s2)cc(N2CCN(CCO)CC2)n1 [dasatanib] + COC(=O)c1sccc1S(=O)(=O)Nc1ccc(Nc2ccccc2)cc1OC [GSK0660] (first compound 0.02 µM, partner dose 5 µM) | 58.4% | 87.1% | 78.2% | 62.7% | 76.4% | 72.6% | 61.6% | 61% | 62.1% | 96.1% |
